Assay results: the supplement of paper PMC8728848
This is one part of the list.

Legend:
Test in all cases: glycan array binding signal (z-score within array); higher = stronger binding
Details in all cases: glycan notation: IUPAC condensed, linker removed
Fuc(a1-2)Gal = molecular target: Fuc(a1-2)Gal
Outline: (§1)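 From the Consortium for Functional Glycomics database, 3228 arrays were curated, keeping only those whose protein sequence was available. Binding is given as a within-array Z-score averaged across arrays sharing a protein sequence and across linkers. Negative Z-scores can be read as non-binding.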

Fuc(a1-2)Gal(b1-3)GalNAc = molecular target: Fuc(a1-2)Gal(b1-3)GalNAc
Outline: as §1

[1] = molecular target: Fuc(a1-2)Gal(b1-3)GalNAc(a1-3)[Fuc(a1-2)]Gal(b1-4)Glc
Outline: as §1

[2] = molecular target: Fuc(a1-2)Gal(b1-3)GalNAc(a1-3)[Fuc(a1-2)]Gal(b1-4)GlcNAc
Outline: as §1

[3] = molecular target: Fuc(a1-2)Gal(b1-3)GalNAc(b1-3)Gal
Outline: as §1

[4] = molecular target: Fuc(a1-2)Gal(b1-3)GalNAc(b1-3)Gal(a1-4)Gal(b1-4)Glc
Outline: as §1

[5] = molecular target: Fuc(a1-2)Gal(b1-3)GalNAc(b1-4)[Neu5Ac(a2-3)]Gal(b1-4)Glc
Outline: as §1

Fuc(a1-2)Gal(b1-3)GlcNAc = molecular target: Fuc(a1-2)Gal(b1-3)GlcNAc
Outline: as §1

[6] = molecular target: Fuc(a1-2)Gal(b1-3)GlcNAc(b1-2)Man(a1-3)[Fuc(a1-2)Gal(b1-3)GlcNAc(b1-2)Man(a1-6)]Man(b1-4)GlcNAc(b1-4)GlcNAc
Outline: as §1

[7] = molecular target: Fuc(a1-2)Gal(b1-3)GlcNAc(b1-2)Man(a1-3)[Fuc(a1-2)Gal(b1-3)GlcNAc(b1-2)Man(a1-6)]Man(b1-4)GlcNAc(b1-4)[Fuc(a1-6)]GlcNAc
Outline: as §1

[8] = molecular target: Fuc(a1-2)Gal(b1-3)GlcNAc(b1-3)Gal(b1-4)Glc
Outline: as §1

[9] = molecular target: Fuc(a1-2)Gal(b1-3)GlcNAc(b1-3)GalNAc
Outline: as §1

[10] = molecular target: Fuc(a1-2)Gal(b1-3)GlcNAc(b1-3)[Fuc(a1-3)[Gal(b1-4)]GlcNAc(b1-6)]Gal(b1-4)Glc
Outline: as §1

[11] = molecular target: Fuc(a1-2)Gal(b1-3)GlcNAc(b1-3)[Gal(b1-4)GlcNAc(b1-6)]Gal(b1-4)Glc
Outline: as §1

[12] = molecular target: Fuc(a1-2)Gal(b1-3)GlcNAc(b1-3)[Neu5Ac(a2-6)Gal(b1-4)GlcNAc(b1-6)]Gal(b1-4)Glc
Outline: as §1

[13] = molecular target: Fuc(a1-2)Gal(b1-3)[Fuc(a1-4)]GlcNAc
Outline: as §1

[14] = molecular target: Fuc(a1-2)Gal(b1-3)[Fuc(a1-4)]GlcNAc(b1-2)Man(a1-3)[Fuc(a1-2)Gal(b1-3)[Fuc(a1-4)]GlcNAc(b1-2)Man(a1-6)]Man(b1-4)GlcNAc(b1-4)GlcNAc
Outline: as §1

[15] = molecular target: Fuc(a1-2)Gal(b1-3)[Fuc(a1-4)]GlcNAc(b1-3)[Fuc(a1-3)[Gal(b1-4)]GlcNAc(b1-6)]Gal(b1-4)Glc
Outline: as §1

[16] = molecular target: Fuc(a1-2)Gal(b1-3)[Fuc(a1-4)]GlcNAc(b1-3)[Gal(b1-4)GlcNAc(b1-6)]Gal(b1-4)Glc
Outline: as §1

Fuc(a1-2)Gal(b1-4)Glc = molecular target: Fuc(a1-2)Gal(b1-4)Glc
Outline: as §1

Fuc(a1-2)Gal(b1-4)Glc6S = molecular target: Fuc(a1-2)Gal(b1-4)Glc6S
Outline: as §1

Fuc(a1-2)Gal(b1-4)GlcNAc = molecular target: Fuc(a1-2)Gal(b1-4)GlcNAc
Outline: as §1

[17] = molecular target: Fuc(a1-2)Gal(b1-4)GlcNAc(b1-2)Man(a1-3)[Fuc(a1-2)Gal(b1-4)GlcNAc(b1-2)Man(a1-6)]Man(b1-4)GlcNAc(b1-4)GlcNAc
Outline: as §1

[18] = molecular target: Fuc(a1-2)Gal(b1-4)GlcNAc(b1-2)Man(a1-3)[Fuc(a1-2)Gal(b1-4)GlcNAc(b1-2)Man(a1-6)]Man(b1-4)GlcNAc(b1-4)[Fuc(a1-6)]GlcNAc
Outline: as §1

[19] = molecular target: Fuc(a1-2)Gal(b1-4)GlcNAc(b1-2)[Fuc(a1-2)Gal(b1-4)GlcNAc(b1-4)]Man(a1-3)[Fuc(a1-2)Gal(b1-4)GlcNAc(b1-2)Man(a1-6)]Man(b1-4)GlcNAc(b1-4)GlcNAc
Outline: as §1

[20] = molecular target: Fuc(a1-2)Gal(b1-4)GlcNAc(b1-3)Gal(b1-4)GlcNAc
Outline: as §1

[21] = molecular target: Fuc(a1-2)Gal(b1-4)GlcNAc(b1-3)Gal(b1-4)GlcNAc(b1-3)Gal(b1-4)GlcNAc
Outline: as §1

[22] = molecular target: Fuc(a1-2)Gal(b1-4)GlcNAc(b1-3)GalNAc
Outline: as §1

[23] = molecular target: Fuc(a1-2)Gal(b1-4)GlcNAc(b1-3)[Fuc(a1-2)Gal(b1-4)GlcNAc(b1-6)]GalNAc
Outline: as §1

[24] = molecular target: Fuc(a1-2)Gal(b1-4)GlcNAc6S
Outline: as §1

B1: Gal 9 (Canis lupus) (protein)
chain: MAFSSSQPPYLSPGVPFSGKIQGGLQDGLKITINGTILYCNGTRFAVNFHSGHSDSDIAFHFNPRFEEGGYVVCNTKQKGSWGSEERKMQMPFQMGNPFELCFMVNSCDFKVTVNGSHFTQYSHRVPFHYVDTLSITGAVQLSYISFQSPGVWQSSSAPITQTVIHTVQTTPGQPFPNPIIPPTAYPTPTYPMPFFTSIPGGLYPSKSIIVSGTVLPGAKRFHINLRSGNDIAFHLNPRFNENTVVRNMQINNSWGSEERSLPRKMPFVQGQSFSVWIMCEGHCFKVAVDGEHLFEYYHRLKNLLAINNMEVAGDVQLTHVQT
Question: For B1, which “glycan array binding signal (z-score)” value (Fuc(a1-2)Gal) is on record?
Answer: -0.346

Question: And the “glycan array binding signal (z-score)” value (Fuc(a1-2)Gal(b1-3)GalNAc)?
Answer: -0.338

Question: What about the “glycan array binding signal (z-score)” value [1] of the same binder?
Answer: 0.023

Question: And the “glycan array binding signal (z-score)” value [2]?
Answer: 0.071

Question: What about the “glycan array binding signal (z-score)” value [3] of the same binder?
Answer: -0.335

Question: What about the “glycan array binding signal (z-score)” value [4] of the same binder?
Answer: -0.352

Question: What about the “glycan array binding signal (z-score)” value [5] of the same binder?
Answer: -0.342

Question: What about the “glycan array binding signal (z-score)” value (Fuc(a1-2)Gal(b1-3)GlcNAc) of the same binder?
Answer: 0.059

Question: And the “glycan array binding signal (z-score)” value [6]?
Answer: -0.152

Question: What about the “glycan array binding signal (z-score)” value [7] of the same binder?
Answer: -0.285

Question: What about the “glycan array binding signal (z-score)” value [8] of the same binder?
Answer: 0.273

Question: What about the “glycan array binding signal (z-score)” value [9] of the same binder?
Answer: -0.296

Question: And the “glycan array binding signal (z-score)” value [10]?
Answer: 0.15

Question: What about the “glycan array binding signal (z-score)” value [11] of the same binder?
Answer: 0.057

Question: What about the “glycan array binding signal (z-score)” value [12] of the same binder?
Answer: -0.017

Question: And the “glycan array binding signal (z-score)” value [13]?
Answer: -0.33

Question: What about the “glycan array binding signal (z-score)” value [14] of the same binder?
Answer: -0.265

Question: What about the “glycan array binding signal (z-score)” value [15] of the same binder?
Answer: -0.356

Question: What about the “glycan array binding signal (z-score)” value [16] of the same binder?
Answer: -0.147

Question: What about the “glycan array binding signal (z-score)” value (Fuc(a1-2)Gal(b1-4)Glc) of the same binder?
Answer: -0.043

Question: What about the “glycan array binding signal (z-score)” value (Fuc(a1-2)Gal(b1-4)Glc6S) of the same binder?
Answer: 0.056

Question: What about the “glycan array binding signal (z-score)” value (Fuc(a1-2)Gal(b1-4)GlcNAc) of the same binder?
Answer: -0.32

Question: And the “glycan array binding signal (z-score)” value [17]?
Answer: 0.116

Question: What about the “glycan array binding signal (z-score)” value [18] of the same binder?
Answer: -0.086

Question: What about the “glycan array binding signal (z-score)” value [19] of the same binder?
Answer: -0.006

Question: And the “glycan array binding signal (z-score)” value [20]?
Answer: -0.057

Question: What about the “glycan array binding signal (z-score)” value [21] of the same binder?
Answer: 0.039

Question: What about the “glycan array binding signal (z-score)” value [22] of the same binder?
Answer: -0.254

Question: What about the “glycan array binding signal (z-score)” value [23] of the same binder?
Answer: -0.182

Question: And the “glycan array binding signal (z-score)” value [24]?
Answer: -0.098
